# PMC10668032
# The other results are listed elsewhere or left out. At the low end of the ranking, values are background and their order means little.
# Molecular target: SIX1-Q177R homeodomain (UniProt Q15475)
# Assay: universal protein binding microarray
# Settings: Universal all-10-mer PBM (8x60K, AMADID 030236), 300 nM GST-tagged protein, Alexa Fluor 488 anti-GST; buffer, salt, pH and temperature not stated; high values mean tight binding; most listed sequences are background and not binding sites; double strand, one strand shown
row,Sequence,binding signal [E-score]
1,ACTTTAAT,-0.0641
2,CCGAAGGA,0.0587
3,CTCACAGC,-0.128
4,TAGTATGA,-0.0172
5,CAAGGAGC,-0.115
6,ATATGAAT,-0.141
7,TACAACTA,-0.075
8,AAGGTTTG,-0.0842
9,CATTCAAA,-0.185
10,CACAGAAC,0.0828
11,CCTATAAC,0.194
12,GCGCACAC,0.289
13,ATAGCAAT,-0.118
14,GAGGAAGA,-0.202
15,CAGTCCAA,-0.111
16,ATCCACGC,-0.105
17,GGCGCCGA,-0.0887
18,ATGATCGG,-0.0775
19,GGTATCTA,0.216
20,TAAGCTGA,-0.0983
21,AAGTGGAA,0.0977
22,ACCAGCTG,0.0235
23,CCACACCG,0.363
24,AATTCATG,-0.0272

row,Sequence,binding signal [E-score]
1,AGACTCCT,0.0374
2,CGGCTCTA,-0.0884
3,ACTGACAT,-0.038
4,CAGTGTGC,0.12
5,GGGACCGA,-0.157
6,AATTTGGG,-0.144
7,GCCGGCAC,-0.104
8,ACTCGGCA,0.161
9,GCGCTTGA,-0.203
10,GCGGCCTA,-0.163
11,CAACCCTA,0.0885
12,ACTACACT,0.431
13,GGGAAAAC,-0.147
14,CCCGGACC,0.0319
15,CCAACCAC,0.134
16,CCACTGTA,0.0301
17,CATATGAC,-0.0276
18,ACCCCATG,0.226
19,ATAGCGTA,-0.0919
20,GACCCAGC,0.0632
21,TGATCCAA,0.0781
22,CACAAGAC,-0.108
23,CGTACGAA,-0.192
24,AAGTCTCC,-0.301

row,Sequence,binding signal [E-score]
1,ATATTAAT,-0.0555
2,GAAGCATC,-0.138
3,AGGGATAA,0.109
4,AAGCTTGT,-0.117
5,CATGCTAA,-0.224
6,CTCTTCAA,-0.108
7,ACACAAAC,0.123
8,GTTACAGA,-0.0521
9,AACATCGA,-0.0983
10,AATCGCTA,0.0501
11,AAAATGTA,-0.234
12,ACGAATCG,-0.00509
13,AAGTGCTA,-0.0655
14,CAAGAAAG,-0.237
15,CGTTTGTA,-0.276
16,TGGGTAAA,-0.0968
17,AGCCAGAT,-0.178
18,GCTTACCA,-0.112
19,AGAGCAAC,-0.127
20,GTGAACGA,-0.127
21,ACATACTC,0.0372
22,AGGCCGTC,-0.169
23,AGGACACA,0.224
24,AACTCGCG,0.0375

row,Sequence,binding signal [E-score]
1,GCTATGAC,-0.2
2,CAATCACA,-0.0521
3,AATGGGCT,-0.0422
4,ATTCGGCC,0.0525
5,CCGCTCGA,-0.087
6,ACCATGGG,0.162
7,GACACAGA,0.118
8,ACCCTGGC,0.0832
9,TGTGGCAA,-0.00668
10,CCTAGGGA,0.0728
11,AGAGCAAG,-0.0458
12,CACTGGCG,0.268
13,CCCCTGAC,0.271
14,GAGAGTCC,-0.187
15,AAGCGGAA,-0.115
16,CCCGTAAG,0.119
17,ACCCTAAA,0.11
18,CTCCTCCA,0.103
19,GGTGAGAA,-0.00273
20,ATAATTTG,-0.136
21,CTCTGGGC,-0.101
22,CACCCTGA,0.339
